About 1,700 (3.3%) of roughly 52,000 compounds were called active. Cut-off read from the data, not from the text of the source: active = survival mostly below about 52% (no sharp cut-off); inactive = mostly above about 56%. Some of the results follow.
Test system: Wild type
Assay: growth inhibition of S. aureus wild type versus tarO mutant, primary screen, teichoic acid synthesis inhibitors, RN4220, OD600 (AID 463173)
Conditions: S. aureus RN4220 wild type/DeltatarO growth, OD600, 18 h, active compounds read low, screened at 18.75 µg/mL (by protocol)

Compound | survival
CN1C(=O)/C(=C/C=C2/Sc3ccccc3N2CCO)SC1=S | inactive: 112%
O=C(CSc1nnc2ccc3ccccc3n12)Nc1ccccc1Cl | inactive: 72%
Cc1ccc(NS(=O)(=O)c2ccc(-n3cccn3)cc2)cc1Cl | inactive: 72%
O=C(Cc1ccc(F)cc1)NCc1ccc2c(c1)CCN2C(=O)c1ccc(F)cc1 | inactive: 76%
COC(=O)c1cc2oc3ccccc3c2n1CC(=O)Nc1ccc(Cl)cc1F | inactive: 125%
COc1cccc(-n2c(SCC(=O)Nc3c(C)cc(C)cc3C)nc3c([nH]c4ccccc43)c2=O)c1 | inactive: 69%
Cc1ccc(C(c2nnnn2CS(=O)(=O)c2ccc(C)cc2)N2CCCC2)cc1 (stereo not drawn) | inactive: 101%
COc1cccc2c1cc1c(=O)n(CC(=O)NCc3ccc(C)o3)nc(C)n12 | inactive: 82%
O=C(Nc1ccccc1)N(C1=NCCCCS1)c1ccccc1 | inactive: 112%
O=C(COc1ccc(Cl)cc1)Nc1ccc2nc(SCC(=O)N3CCCC3)sc2c1 | inactive: 75%
COc1ccc(OC)c(NC(=O)CSc2ccc(-c3sc(C)nc3C)nn2)c1 | inactive: 88%
CCN(CC)S(=O)(=O)c1ccc(-c2nnc(SCC(=O)O)n2CC)cc1 | inactive: 101%
COc1ccc(CCNC(=O)c2ccc3c(c2)N(Cc2ccc(F)cc2)C(=O)CS3)cc1OC | inactive: 121%
Cc1cccc(-c2nc(CCNC(=O)Cc3ccccc3)cs2)c1 | active: -1%
CCn1c(=O)cc(SCC(=O)NCc2ccc(OC)cc2OC)c2ccccc21 | inactive: 71%
Cc1nn(C(=O)c2cccc(Cl)c2)c(C)c1S(=O)(=O)N1CCOCC1 | inactive: 99%
COc1ccc(CCNC(=O)C(=O)NCC(c2ccco2)S(=O)(=O)c2cccs2)cc1OC (stereo not drawn) | inactive: 85%
CCC(=O)N1CCc2cc(S(=O)(=O)NC(CC(C)C)C(=O)NCCc3ccccc3)ccc21 (stereo not drawn) | inactive: 127%
O=C(COc1ccccc1-c1nc(-c2ccccc2)no1)Nc1cccc([N+](=O)[O-])c1 | inactive: 83%
O=C(c1nc(-c2ccc(Cl)cc2)n2c1CCCCC2)N1CCN(c2ccccc2)CC1 | inactive: 69%
CCOC(=O)c1c(-c2ccccc2)oc2ccc(N(C(C)=O)S(=O)(=O)c3ccc(CC)cc3)cc12 | inactive: 83%
CCOc1ccccc1C(=O)NC1CCN(Cc2nnnn2C2CCCC2)CC1 | inactive: 121%

Compound | survival
CC(=O)N1CCc2nc3sc(C(=O)Nc4ccc(Cl)cc4F)c(N)c3c(C(F)(F)F)c2C1 | inactive: 107%
CCOc1ccccc1NC(=O)Cn1c(=O)ccc2cc(S(=O)(=O)N3CCCC3)ccc21 | active: -3%
CC(Oc1ccccc1)C(=O)Nc1nnc2n1CCS2 (stereo not drawn) | inactive: 83%
COc1cc(-c2nc3nc(C)cc(C)n3c2Nc2ccc(Cl)cc2)ccc1O | inactive: 82%
COc1ccc(Cn2c(C(=O)O)c(CNCc3ccc(C)o3)c3ccc(C)cc32)cc1 | inactive: 63%
CCOC(=O)Nc1ccc2c(c1)Nc1ccccc1S2 | inactive: 124%
O=C(c1cc2ccc3cccnc3c2[nH]1)N1CCN(c2ccccc2)CC1 | inactive: 59%
COc1ccc2[nH]c(=O)c(CN(Cc3cccs3)S(=O)(=O)c3cccc4nsnc34)cc2c1 | inactive: 112%
COc1ccc(C(=O)Nc2ccc(-c3nnc4n3CCCCC4)cc2)cc1OC | inactive: 65%
CCOC(=O)c1ccc2ncc3c(-c4ccccc4)nn(-c4ccc(F)c(Cl)c4)c3c2c1 | inactive: 108%
CC(C)c1nc2ccc(C(=O)NC(C)c3ccccc3)cc2o1 (stereo not drawn) | inactive: 121%
Cc1cccc(NC(=O)N2CCCC2C(=O)Nc2ccccc2)c1 (stereo not drawn) | inactive: 101%
O=C(NC1CCCC1)c1ccc(CSc2nc3cccnc3n2Cc2ccc(F)cc2)cc1 | inactive: 45%
CCc1ccccc1N1CC(c2nc3ccccc3n2CCCCOc2ccccc2)CC1=O (stereo not drawn) | active: 19%
COc1cccc(/C=C/C(=O)Nc2ccc3nc(N4CCN(C)CC4)cc(C)c3c2)c1OC | inactive: 53%
CC(=O)c1ccc(N2CCN(S(=O)(=O)c3ccc4c(c3)C(C)(C)C(=O)N4)CC2)cc1 | inactive: 75%
CCCn1c2ccccc2c2cnn(CC(=O)N(CCCOC)Cc3ccco3)c(=O)c21 | inactive: 85%
Oc1ccccc1-c1nc(/C=C/c2ccc(F)cc2)nn1-c1ccccc1 | inactive: 34%
CCOc1ccc(NC(=O)CSc2ncc3c(n2)-c2ccccc2N(Cc2ccccc2C)S3(=O)=O)cc1 | inactive: 63%
CCOc1ccc(OCC)c(S(=O)(=O)n2cnc3cc(C)c(C)cc32)c1 | inactive: 110%
COc1ccc(-c2nc(SCCOc3ccccc3Cl)n3[nH]c(=O)cc3n2)cc1 | inactive: 73%
COc1cc(NC(=O)CSc2ncccc2C(=O)OC(C)C)cc(OC)c1 | inactive: 83%

Compound | survival
COc1ccc(CCNC(=O)CS(=O)Cc2nc(-c3ccccc3F)oc2C)cc1OC (stereo not drawn) | inactive: 83%
Cc1cc(C(=O)NCc2ccccc2Cl)c2c(C)nn(-c3ccccc3)c2n1 | inactive: 72%
CCN1C(C(=O)c2ccccc2)=C(OC(=O)c2ccccc2OC)c2ccccc2S1(=O)=O | inactive: 81%
CC(=O)c1cc2c(cc1N/C(=N/S(=O)(=O)c1ccc(C)cc1)c1ccc(F)cc1)OCO2 | inactive: 82%
Cc1cc(NC(=O)CNCC2CCCCC2)no1 | inactive: 104%
CCOc1ccc(-c2nc(CSCC(=O)NCc3ccc(Cl)cc3)c(C)o2)cc1 | inactive: 87%
CCN(CC)CCNC(=O)c1ccc2c(=O)n3nc(Nc4ccccc4OC)sc3nc2c1 | inactive: 146%
O=S1(=O)c2ccccc2N(Cc2cccc(Cl)c2)c2ccccc21 | active: -2%
COc1cccc(CNC(=O)C2CCN(c3nnc(-n4c(C)ccc4C)s3)CC2)c1OC | inactive: 127%
CC(C)CCNC(=O)CN1C(=O)CSc2ccc(S(=O)(=O)N3CCCCC3)cc21 | inactive: 66%
Cc1c(C(=O)N2CCN(c3ccccc3)CC2)sc2nc3n(c(=O)c12)CCC3 | inactive: 97%
CCc1ccc(S(=O)(=O)c2nnn3c2nc(NC(C)C)c2sccc23)cc1 | inactive: 84%
COc1ccc(CCNC(=O)c2ccc3c(c2)ncn3-c2ccc(C)cc2C)cc1OC | inactive: 121%
CC(C)CC(c1nnnn1C1CCCC1)N1CCC(C(N)=O)CC1 (stereo not drawn) | inactive: 104%
CCOC(=O)c1c(-c2ccc(C)cc2)csc1NC(=O)c1nc(SC(C)C)ncc1Cl | inactive: 85%
CCc1ccccc1NC(=O)C1CCCN(C(=O)c2cnn(-c3ccccc3)c2-n2cccc2)C1 (stereo not drawn) | inactive: 71%
Cc1ccc(NC(=O)c2ccc(-n3c(C)nnc3C)cc2)cc1F | inactive: 131%
CCC(C(=O)NCCc1ccccc1)n1nc(C)n2c(cc3sccc32)c1=O (stereo not drawn) | inactive: 78%
COc1ccc(S(=O)(=O)N2CCN(Cc3nc4ccc(C)cc4o3)CC2)cc1Cl | inactive: 127%
CCCc1nc(SCc2cc(=O)c3ccc(C)c(C)c3[nH]2)n[nH]1 | inactive: 136%
CCc1cc2c(cc3c(=O)n(CC(=O)NC4CCC(C)CC4)ncn32)s1 (stereo not drawn) | inactive: 82%
CCOc1ccccc1NC(=O)c1c(NC(=O)c2cccc(C)c2)sc2c1CCC2 | inactive: 74%

Compound | survival
COc1cc(OC)c(NS(=O)(=O)c2ccc3c(c2)CCCN3C(C)=O)cc1Cl | inactive: 77%
CCOc1ccc(N2CC(NC(=O)c3ccc(S(=O)(=O)N4CCCCC4)cc3)CC2=O)cc1 (stereo not drawn) | inactive: 71%
Cc1ccc(NC(=O)CSc2nc3ccccc3nc2N2CCOCC2)cc1 | inactive: 59%
COc1cc2nc(NCc3ccc(C)cc3)n3nc(-c4ccccc4)nc3c2cc1OC | inactive: 77%
CC1CCc2c(sc(NC(=O)C3c4ccccc4Oc4ccccc43)c2C(=O)OC(C)C)C1 (stereo not drawn) | inactive: 61%
CCOC(=O)c1scc(-c2ccccc2)c1S(=O)(=O)Nc1cc(Cl)c(OC)cc1OC | inactive: 79%
COc1ccc(Nc2nc(N)c3cc(OC)c(OC)cc3n2)cc1 | inactive: 86%
O=C(Cc1ccccc1)NCCc1csc2nc(-c3ccc(Cl)cc3)nn12 | inactive: 74%
NS(=O)(=O)c1ccc(NC(=S)NC(=O)c2cccnc2)cc1 | inactive: 107%
COc1cccc(CNC(=O)c2nn(-c3ccc(C)cc3)c(=O)c3c2c2ccccc2n3C)c1 | inactive: 137%
COC(=O)c1ccc(CSc2nc3c([nH]c4ccccc43)c(=O)n2-c2ccc(OC)cc2)o1 | inactive: 82%
CCOC(=O)c1oc2ccc(S(=O)(=O)n3nc(-c4ccc(Br)cc4)cc3N)cc2c1C | inactive: 81%
COc1ccc(CNC(=O)c2c3c(nc4ccccc24)C(=O)N(C2CCCCC2)C3)cc1 | inactive: 88%
Cc1ccc(-n2nc(C)c3c(C(=O)NCc4ccccc4)cc(C4CC4)nc32)cc1 | inactive: 82%
COc1ccccc1CNS(=O)(=O)c1ccc2c(c1)NC(=O)CC(=O)N2 | inactive: 85%
COc1ccccc1Nc1nn2c(=O)c3ccc(C(=O)N4CCCC(C)C4)cc3nc2s1 (stereo not drawn) | inactive: 68%
COc1ccc(C2CC(=O)N(Cc3cccc(F)c3)c3ccccc3S2)cc1 (stereo not drawn) | active: 9%
Cc1ccc(S(=O)(=O)NCc2nc(-c3cccc(C)c3)no2)cc1 | inactive: 106%
CCOC(=O)c1sc(NC(=O)C2c3ccccc3Oc3ccccc32)c(C(=O)OCC)c1C | inactive: 121%
CCn1cc(C(=O)NCc2ccccc2Cl)c(=O)c2cc(S(=O)(=O)N3CCc4ccccc4C3)ccc21 | inactive: 81%
CCCC(=O)Nc1cc(C)c(NC(=O)C23CC4CC(CC(C4)C2)C3)cn1 | inactive: 90%
COc1ccccc1CNC(=O)CCCn1c(=O)c2ccccc2n(CC(=O)Nc2c(C)cc(C)cc2C)c1=O | inactive: 150%
